Laboratory results from paper PMC6744515.
No constants are given. Whether binding was seen depends on the method and setting. In cells and extracts the contact can be indirect. Some entries that bind do so weakly or less than the wild type. Each block holds one substance with its values, some of them ahead of it.

The chains behind the UniProt entries cited, without tags or fusion partners. Where a name states a change or a piece, a line headed by the entry shows the natural chain unless it says otherwise.
UniProt Q93009: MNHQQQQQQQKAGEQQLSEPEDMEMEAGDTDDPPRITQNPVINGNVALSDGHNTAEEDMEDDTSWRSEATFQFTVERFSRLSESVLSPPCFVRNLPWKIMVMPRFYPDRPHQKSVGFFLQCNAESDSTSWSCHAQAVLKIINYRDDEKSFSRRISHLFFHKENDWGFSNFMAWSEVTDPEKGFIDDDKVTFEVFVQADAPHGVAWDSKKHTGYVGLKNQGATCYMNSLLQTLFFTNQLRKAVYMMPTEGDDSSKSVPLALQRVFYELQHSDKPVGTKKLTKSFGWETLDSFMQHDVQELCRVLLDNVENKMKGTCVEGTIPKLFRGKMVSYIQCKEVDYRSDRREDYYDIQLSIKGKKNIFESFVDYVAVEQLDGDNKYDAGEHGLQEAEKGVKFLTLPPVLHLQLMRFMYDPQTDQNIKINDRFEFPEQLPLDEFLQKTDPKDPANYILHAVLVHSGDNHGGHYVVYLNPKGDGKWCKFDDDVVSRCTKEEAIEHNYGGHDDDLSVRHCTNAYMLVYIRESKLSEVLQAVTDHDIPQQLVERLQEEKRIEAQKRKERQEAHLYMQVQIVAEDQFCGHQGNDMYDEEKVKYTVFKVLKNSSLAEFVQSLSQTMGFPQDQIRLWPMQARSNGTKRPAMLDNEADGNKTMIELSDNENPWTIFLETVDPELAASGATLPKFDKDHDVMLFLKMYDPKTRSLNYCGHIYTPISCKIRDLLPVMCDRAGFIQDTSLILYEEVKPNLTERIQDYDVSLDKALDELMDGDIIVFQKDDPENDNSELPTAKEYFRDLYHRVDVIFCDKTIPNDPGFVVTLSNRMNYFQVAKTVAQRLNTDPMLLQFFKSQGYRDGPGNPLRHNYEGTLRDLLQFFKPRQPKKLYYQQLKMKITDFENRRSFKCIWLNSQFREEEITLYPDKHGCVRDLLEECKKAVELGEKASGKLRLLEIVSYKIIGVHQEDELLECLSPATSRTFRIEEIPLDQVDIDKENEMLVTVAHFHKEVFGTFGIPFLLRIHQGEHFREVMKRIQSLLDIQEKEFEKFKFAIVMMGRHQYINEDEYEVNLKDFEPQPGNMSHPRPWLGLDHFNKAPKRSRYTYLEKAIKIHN
UniProt O35625: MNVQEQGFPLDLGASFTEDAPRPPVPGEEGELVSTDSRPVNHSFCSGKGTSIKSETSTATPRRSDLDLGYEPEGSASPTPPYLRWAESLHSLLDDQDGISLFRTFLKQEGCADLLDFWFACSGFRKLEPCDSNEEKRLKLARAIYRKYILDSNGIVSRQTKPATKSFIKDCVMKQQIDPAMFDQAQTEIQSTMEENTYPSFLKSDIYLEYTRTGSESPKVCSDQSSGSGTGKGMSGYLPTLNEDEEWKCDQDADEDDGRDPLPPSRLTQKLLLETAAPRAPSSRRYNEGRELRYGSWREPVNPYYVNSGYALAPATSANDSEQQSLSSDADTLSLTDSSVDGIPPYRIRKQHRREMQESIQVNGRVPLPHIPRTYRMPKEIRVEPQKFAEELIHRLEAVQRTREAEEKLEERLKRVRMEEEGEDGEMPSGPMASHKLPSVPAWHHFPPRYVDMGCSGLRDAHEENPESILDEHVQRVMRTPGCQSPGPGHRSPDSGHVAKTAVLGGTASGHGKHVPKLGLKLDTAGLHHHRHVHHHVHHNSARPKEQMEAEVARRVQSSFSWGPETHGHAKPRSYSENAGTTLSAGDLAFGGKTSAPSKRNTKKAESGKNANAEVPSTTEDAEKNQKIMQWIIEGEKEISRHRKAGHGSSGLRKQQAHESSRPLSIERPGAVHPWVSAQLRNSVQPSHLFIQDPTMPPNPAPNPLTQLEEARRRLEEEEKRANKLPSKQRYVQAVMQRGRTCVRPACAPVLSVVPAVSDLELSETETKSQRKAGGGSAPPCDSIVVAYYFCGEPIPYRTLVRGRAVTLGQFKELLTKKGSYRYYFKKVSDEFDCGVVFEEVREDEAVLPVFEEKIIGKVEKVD
UniProt O15169: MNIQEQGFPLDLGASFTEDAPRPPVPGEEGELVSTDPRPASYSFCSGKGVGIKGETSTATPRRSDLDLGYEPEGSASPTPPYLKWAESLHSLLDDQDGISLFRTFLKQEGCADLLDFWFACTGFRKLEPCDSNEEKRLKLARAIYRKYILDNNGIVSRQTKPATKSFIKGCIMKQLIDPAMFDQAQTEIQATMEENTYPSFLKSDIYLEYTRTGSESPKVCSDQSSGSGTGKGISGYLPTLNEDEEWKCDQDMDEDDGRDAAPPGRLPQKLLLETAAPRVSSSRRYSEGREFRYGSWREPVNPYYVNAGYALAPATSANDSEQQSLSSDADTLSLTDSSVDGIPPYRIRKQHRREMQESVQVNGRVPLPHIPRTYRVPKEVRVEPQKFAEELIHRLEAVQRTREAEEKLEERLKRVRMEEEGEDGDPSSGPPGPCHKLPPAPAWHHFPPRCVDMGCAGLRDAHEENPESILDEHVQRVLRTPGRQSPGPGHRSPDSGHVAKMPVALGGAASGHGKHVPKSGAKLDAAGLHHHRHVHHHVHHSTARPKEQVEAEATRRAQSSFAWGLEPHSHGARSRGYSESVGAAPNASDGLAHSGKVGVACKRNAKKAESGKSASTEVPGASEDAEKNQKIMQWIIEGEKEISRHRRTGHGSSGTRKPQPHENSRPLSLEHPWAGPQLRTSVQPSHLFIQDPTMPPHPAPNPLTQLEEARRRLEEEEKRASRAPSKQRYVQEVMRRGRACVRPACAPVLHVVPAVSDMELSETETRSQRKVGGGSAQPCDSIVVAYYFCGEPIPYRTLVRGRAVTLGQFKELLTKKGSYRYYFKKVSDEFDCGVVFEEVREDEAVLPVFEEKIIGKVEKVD

What was measured:
[1] = molecular target: endogenous USP7 (human (endogenous in HEK293T)) (UniProt Q93009); test: co-IP; endogenous proteins in HEK293T lysate; USP7 antibody or normal rabbit IgG overnight, magnetic Protein A beads 2 h at 4 °C, immunoblot
[2] = molecular target: His-SUMO tagged full-length Axin1 (a.a. 1–863) (UniProt O35625); test: pull-down; Ni-NTA pulldown: purified His-SUMO-Axin1 with cell lysates containing ectopically expressed Myc-USP7; only the target purified
Myc-USP7 (wild type) = Myc-USP7 (wild type) (UniProt Q93009); test: co-IP; ectopically expressed tagged proteins; cleared NP40 lysates incubated with anti-Myc tag magnetic beads 2 h at 4 °C, washed three times with lysis buffer, immunoblot
Myc-USP7 C223A = Myc-USP7 C223A (UniProt Q93009); test: as above
Myc-USP7 W165A = Myc-USP7 W165A (UniProt Q93009); test: as above

binding [1]: binds
Substance: endogenous AXIN1 (from UniProt O15169 1-862)

binding [2]: binds
Substance: Myc-USP7 (wild type) (from UniProt Q93009 1-1102) (enzyme)

binding [2]: no binding
Substance: Myc-USP7 W165A (from UniProt Q93009 1-1102) (enzyme)

binding (Myc-USP7 (wild type)): binds
binding (Myc-USP7 C223A): binds
binding (Myc-USP7 W165A): no binding
Substance: Flag-Axin1 (from UniProt O35625 1-863)
